# PubChem BioAssay AID686970 (National Center for Advancing Translational Sciences (NCATS), 2013)
# In all, about 360,000 compounds went through this assay and about 6,000 (1.7%) were called active. The shares of active, inactive and inconclusive entries below differ from those in the screen. Calls come from the whole dose curve; as a rule, active = well fitted cell-killing curve with a large enough effect; inconclusive = small, poorly fitted or top-dose-only effect, or effect the other way; inactive = flat fitted curve, though single readings scatter. A potency beside an inconclusive call is a rough fit, not a confirmed value.
# Assay: qHTS for induction of synthetic lethality in tumor cells producing 2HG: qHTS for the HT-1080-NT fibrosarcoma cell line;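 note: NT is the 2HG producing partner of a matched IDH1 knockdown line; nearly all actives have a fitted effect of over 55% in size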;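 for activity, negative = less viability: 0% = DMSO-treated cells and -100% = media-only wells without cells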
# Details: HT-1080-NT fibrosarcoma viability, CellTiter-Glo ATP luminescence, 48 h; activity, negative = less viability: at 46.1 µM (top of the series) unless noted
# How it was run: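 Compounds were tested in concentration-response format on HT-1080-NT cells for 48 hours at 37 degrees C. Cell viability came from CellTiter-Glo luminescence; curves were classified by r2, response magnitude and activity.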
# Potency is the fitted concentration of half-maximal effect; tags give direction and shape of the fitted curve.
SMILES,Potency,"activity, negative = less viability"
Cc1ccc(-c2nc3ccccc3s2)cc1S(=O)(=O)N1CCOCC1,inactive,
O=C1CCC(C(=O)OCC(=O)Nc2ccc(Cl)cc2C(F)(F)F)=NN1,,inconclusive: -4.86% [cytotoxic] [at 9.24 µM]
Cc1ccc(NC(=O)C(C)c2ccc(-c3ccccc3)c(F)c2)cc1 (stereo not drawn),active: 16.4 µM,
O=C(COC(=O)CC1CCCC1)Nc1cccc(F)c1,,inactive: 8.1% [at 9.24 µM]
CCOc1ccccc1Nc1nnc(SCC(=O)Nc2cc(C)on2)s1,"inconclusive: 35.5 µM [cytotoxic, single point]",
COC(=O)CN1C(=O)N/C(=C/c2ccc(C)o2)C1=O,inactive,
O=C(Cc1cccc2ccccc12)N/N=C/c1ccc2cccc(O)c2n1,"inconclusive: 18.4 µM [cytotoxic, single point]",
Cc1cc2ccccn2c1C(=O)c1ccc(F)cc1,inactive,
COc1ccc(/C=N\NC(=O)COc2ccc(C(C)(C)C)cc2)cc1Cn1nc(C)cc1C,"inconclusive: 29.1 µM [cytotoxic, single point]",
O=C1CCC[C@@H]2[C@H]3CCC[N+]4([O-])CCC[C@@H](CN12)[C@@H]34 (stereo partly drawn),inactive,
O=C1OC(N2C(=O)CC[C@H]2C(=O)Nc2ccc(Br)cc2F)c2ccccc21 (stereo partly drawn),inactive,
NC(=O)NCC(c1ccccc1)C1CCCCC1 (stereo not drawn),inactive,
CC(=O)c1ccc(OCc2cc(C(=O)N3CCC(c4ccncc4)CC3)no2)cc1,active: 18.4 µM,
COc1ccc(C2C3=C(CC(C)(C)CC3=O)Oc3ncn(Cc4ccccc4)c(=N)c32)cc1 (stereo not drawn),"inconclusive: 22.4 µM [cytotoxic, single point]",
COc1cc2c(cc1OC)CN(c1nc(CN3CCCC3)nc3sc(C)c(C)c13)CC2,active: 14.6 µM,
C(#Cc1ccccc1)C[N+]1(CC#Cc2ccccc2)CCCCC1,"inconclusive: 8.2 µM [cytotoxic, partial curve]",
Cc1ccc(S(=O)(=O)c2c(C)cc(C)nc2Cl)c(C)c1,inactive,
COc1ccc(S(=O)(=O)Nc2cc(SCC(=O)O)c(O)c3ccccc23)cc1,"inconclusive: 16.4 µM [cytotoxic, single point]",
Cc1ccc(C(=O)CC(=O)c2ccccc2C)c(O)c1,"inconclusive: 14.6 µM [cytotoxic, partial curve]",
COc1ccc(NC(=O)c2ccccc2C)c(OC)c1,inactive,
CCOC(=O)c1c(NC(=O)CN2C(=O)NC(C)(c3ccccc3)C2=O)sc(C)c1C (stereo not drawn),"inconclusive: 20.6 µM [cytotoxic, single point]",
COc1ccc(-c2[nH]c(-c3ccc(C(=O)O)cc3)nc2-c2ccccc2)cc1,inactive,
O=C1N[C@@H](Cc2ccccc2)C(=O)N2[C@@H]3N(S(=O)(=O)c4ccccc4)c4ccccc4[C@]3(Br)C[C@@H]12,,inconclusive: -31.2% [cytotoxic]
Cc1cccc(C)c1NC(=O)c1c(O)c2ccccc2[nH]c1=O,inactive,
Nc1nc(-c2cccc(Br)c2)cs1,"inconclusive: 25.1 µM [cytotoxic, single point]",

SMILES,Potency,"activity, negative = less viability"
CCOC(=O)N1CCN(c2nc(C(F)(F)F)nc3c(C)cc(C)cc23)CC1,"inconclusive: 25.9 µM [rising, single point]",
CCOc1ccc(CN2CCNC(=O)C2CC(=O)NCCc2nc(C)c3c(n2)CCC3)cc1 (stereo not drawn),,inconclusive: 31%
Cc1ccc(C2Nc3ccccc3C(=O)N2Cc2ccco2)cc1 (stereo not drawn),"inconclusive: 29.1 µM [cytotoxic, single point]",
COC(=O)CNC(=O)CCc1nnc(C2(c3ccc(Cl)cc3)CCC2)o1,"inconclusive: 16.4 µM [rising, single point]",
O=C(CN1C(=O)S/C(=C\C=C\c2ccccc2)C1=O)Nc1cccc(O)c1,"inconclusive: 18.4 µM [cytotoxic, single point]",
CC(=O)N1N=C(c2cccc([N+](=O)[O-])c2)OC1(C)CC(=O)Nc1ccccc1 (stereo not drawn),inactive,
COc1ccccc1C1c2ccc3ccccc3c2Oc2ncn(CCCO)c(=N)c21 (stereo not drawn),active: 20.6 µM,
Cc1cc2ccc(C)c(C)c2nc1SCC(=O)c1cccs1,"inconclusive: 35.5 µM [cytotoxic, single point]",
Cc1cc(NC(=O)c2ccc([N+](=O)[O-])o2)ccc1NC(=O)c1ccco1,active: 5.17 µM,
Cc1cc(N)n2nc(-c3ccccc3)cc2n1,"inconclusive: 16.4 µM [cytotoxic, single point]",
Cn1c(-c2ccccc2)c(C(=O)CCl)c2ccccc21,active: 14.6 µM,
COC(=O)c1sc(-c2ccc(C(C)(C)C)cc2)cc1NC(=O)COCC(=O)O,active: 16.4 µM,
CN1C2C=C(N(CCc3c[nH]c4ccccc34)C(=O)c3ccc(Cl)cc3)CC1CC2 (stereo not drawn),"inconclusive: 29.1 µM [cytotoxic, single point]",
CC1(C(=O)NCCC(F)(F)F)Cc2c(-c3cccc(C(N)=O)c3)ccnc2O1 (stereo not drawn),"inconclusive: 25.9 µM [cytotoxic, single point]",
CCN1CCN(CC(=O)Nc2cc(S(=O)(=O)N(CC)c3ccccc3)ccc2Cl)CC1,"inconclusive: 11.6 µM [cytotoxic, partial curve, poor fit]",
COc1ccc(-c2coc3c(C(=O)NCc4cccs4)cccc23)c(C)c1,"inconclusive: 25.9 µM [cytotoxic, partial curve]",
COc1ccc(N(CC(=O)N/N=C(\C)c2ccc(OC)c(OC)c2)S(=O)(=O)c2ccccc2)cc1,"inconclusive: 29.1 µM [cytotoxic, single point]",
O=C(NCc1cccc(C(F)(F)F)c1)C1CC(c2ccccc2C(F)(F)F)=NO1 (stereo not drawn),"inconclusive: 32.6 µM [cytotoxic, single point]",
O=C(CC1(CC2=NS(=O)(=O)c3ccccc3N2)CCCC1)NCCc1ccccc1,inactive,
COc1ccc(N2C(=O)C(CC(=O)Nc3ccc(F)cc3)N(CCc3ccc(OC)c(OC)c3)C2=O)cc1 (stereo not drawn),inactive,
CCOC(=O)C1=C(N)n2c(s/c(=C\c3ccco3)c2=O)=C(C(=O)OCC)C1c1ccco1 (stereo not drawn),active: 15.8 µM,
CCn1cc(Cl)c(C(=O)N2N=C3/C(=C/c4cccs4)CCCC3C2c2cccs2)n1 (stereo not drawn),"inconclusive: 18.4 µM [cytotoxic, single point]",
CCn1c(CSc2nc3ccccc3s2)nnc1SCC(=O)c1ccc(O)c(O)c1,"inconclusive: 35.5 µM [cytotoxic, single point]",
Cc1ccc(-c2cc(C(=O)Nc3c(C)n(C)n(-c4ccccc4)c3=O)c3ccccc3n2)cc1,inactive,
Cc1cc(C)c2c(N)c(C(=O)Nc3ccccc3Cl)sc2n1,"inconclusive: 29.1 µM [cytotoxic, single point]",

SMILES,Potency,"activity, negative = less viability"
CC1=C(C(=O)N2CCOCC2)CC(CC(=O)NCC2CCCCC2)C(=O)N1Cc1ccc(C(C)(C)C)cc1 (stereo not drawn),"inconclusive: 20.6 µM [cytotoxic, single point]",
O=C(NCc1ccc(/C=N\NC(=O)C(=O)Nc2ccccc2Br)o1)C(=O)Nc1ccccc1,inactive,
O=C1CCC(C(=O)N2CCCC2)CN1Cc1cccc(C(F)(F)F)c1 (stereo not drawn),inactive,
O=C(N/N=C\c1c(O)ccc2ccccc12)c1ccc(O)cc1,"inconclusive: 29.1 µM [cytotoxic, single point]",
CN(C(=O)Cn1nc(C(=O)O)c2ccccc2c1=O)C1CCCCC1,inactive,
CC(C)(C)SCCNC(=O)CN(c1ccc(F)cc1)S(C)(=O)=O,inactive,
CCOc1ccc(C2NC(=S)NC3=C2CCc2ccccc23)cc1 (stereo not drawn),,inconclusive: -26.3% [cytotoxic]
CC1=C(C(=O)Nc2cccc(C(=O)N3CCN(c4cccc(C(F)(F)F)c4)CC3)c2)SCCO1,"inconclusive: 16.4 µM [cytotoxic, partial curve, poor fit]",
COCCOC(=O)/C(C#N)=C/c1cn(Cc2ccccc2)nc1-c1cccnc1,inactive,
Cc1ccc2cc(CN(CCc3ccccc3)C(=S)NCCCN(C)C)c(=O)[nH]c2c1,active: 25.9 µM,
OC(COc1ccccc1)CN1CCOCC1 (stereo not drawn),inactive,
COC(=O)[C@@]12C[C@@H](CC(=O)N3CCCC3)C(=O)N(Cc3ccccc3)C1=CCC(C)(C)C2,inactive,
COC(=O)/C(=C\Nc1ccc(Oc2ccc(F)cc2F)nc1)NC(=O)c1ccccc1,"inconclusive: 29.1 µM [rising, single point]",
O=C(Nc1nc(-c2ccccn2)cs1)c1ccc(F)c(S(=O)(=O)N2CCOCC2)c1,"inconclusive: 1.3 µM [cytotoxic, full curve]",
O=c1c(O)c(-c2ccc3c(c2)OCO3)oc2ccccc12,"inconclusive: 18.4 µM [cytotoxic, single point]",
O=C(CN1C(=O)S/C(=C/C=C/c2ccccc2)C1=O)Nc1ccc(C(=O)O)cc1,inactive,
COc1cc([N+](=O)[O-])ccc1NC(=S)NNC(=O)c1ccc2c(c1)OCO2,"inconclusive: 29.1 µM [cytotoxic, single point]",
COc1cc(C2C3=C(COC3=O)Oc3cc4c(cc32)OCO4)cc(OC)c1OC (stereo not drawn),active: 0.103 µM,
CCN(CC)CCNc1nc(-n2nc(C)cc2C)nc2sc3c(c12)CC(C)(C)OC3,"inconclusive: 23.1 µM [cytotoxic, single point]",
c1ccc(-c2noc(-c3ccncc3)n2)nc1,active: 11.2 µM,
CCCCCCCn1c(=N)n(CC(=O)c2ccco2)c2ccccc21,"inconclusive: 29.1 µM [cytotoxic, single point]",
CCCCOc1ccc(Cn2c(=O)oc3ccccc32)cc1,inactive,
CCS(=O)(=O)Nc1ccc(C(=O)OC)cc1,inactive,
